The text below walks through data of the supplement of paper PMC3334620.

Whole data set: some 33,000 sequences, median “E-score (-0.5 to 0.5)” near -0.016, cut for the highest 2% near 0.32. The list shows a part of the results.

This assay has as its target T1, Stp1 (UniProt B3LFK1).
T1 sequence: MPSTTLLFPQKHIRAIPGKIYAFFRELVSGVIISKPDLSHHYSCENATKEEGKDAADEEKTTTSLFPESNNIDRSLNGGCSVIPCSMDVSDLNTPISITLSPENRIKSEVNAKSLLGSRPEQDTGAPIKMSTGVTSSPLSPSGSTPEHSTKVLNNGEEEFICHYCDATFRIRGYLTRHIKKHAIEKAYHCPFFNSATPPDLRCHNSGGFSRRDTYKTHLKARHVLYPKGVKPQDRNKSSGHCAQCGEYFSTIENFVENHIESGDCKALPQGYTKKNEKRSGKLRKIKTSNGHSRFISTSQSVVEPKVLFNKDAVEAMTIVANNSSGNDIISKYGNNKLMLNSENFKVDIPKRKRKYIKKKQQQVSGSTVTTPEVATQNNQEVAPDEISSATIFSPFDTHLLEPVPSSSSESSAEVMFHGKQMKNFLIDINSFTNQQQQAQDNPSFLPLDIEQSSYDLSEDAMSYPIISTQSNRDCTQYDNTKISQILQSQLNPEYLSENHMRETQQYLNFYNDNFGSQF
Description: PBM E-score (8-mer binding enrichment) (E-score (-0.5 to 0.5)); higher = stronger / more preferred TF binding; most listed sequences are background and not binding sites. The settings on record: protein concentration: 200 nM; construct: GST-full length. Put shortly: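 E-scores (a modified Wilcoxon-Mann-Whitney statistic) were assigned by the Universal PBM Analysis Suite to every ungapped eight-base word pooled with its reverse complement. The input came from universal all-10-mer Agilent arrays made double-stranded by primer extension and probed with GST-tagged yeast transcription factors at about 100-200 nM. Fluorescent anti-GST detected bound protein, and masliner normalised the scans.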
Consider AGAATCGA, for which the “PBM E-score” value was -0.0411.

For the sequence ACGCCTAG, the “PBM E-score” value was found to be 0.0738.

Turning to AAACGGTT, the “PBM E-score” value is -0.155.

Regarding CGGGTCAC, the “PBM E-score” value was -0.229.

With GTCGGTCA, the “PBM E-score” value is -0.175.

With CACGAGAC, the “PBM E-score” value was -0.0878.

Take CCGAACTA: the “PBM E-score” value came out at 0.0447.

As to ATTCAGAG, the “PBM E-score” value is -0.0616.

Consider CGGACAGA, for which the “PBM E-score” value was determined as 0.0188.

In the case of GGTACGCA, the “PBM E-score” value was -0.0218.

For the sequence CAACTAGC, the “PBM E-score” value was -0.039.

Turning to GTGCGTCA, the “PBM E-score” value was -0.124.

For the sequence CTTTTAAC, the “PBM E-score” value was 0.0407.

Turning to TAGATTCA, the “PBM E-score” value was -0.0655.

Consider TAACGTAA, for which the “PBM E-score” value was -0.0249.

Regarding ATCCAGCC, the “PBM E-score” value was -0.205.

For the sequence CTTATGTA, the “PBM E-score” value amounted to 0.0537.

Turning to ACACGCGA, the “PBM E-score” value turned out to be 0.116.

With CCCGGACA, the “PBM E-score” value was determined as 0.0109.

In the case of GCGGGACA, the “PBM E-score” value is -0.101.

In the case of AGTTACAT, the “PBM E-score” value is -0.109.

Turning to CGTGGCGC, the “PBM E-score” value is 0.303.

CTGCTAAA: the “PBM E-score” value was -0.0648.

As for ACCCTTAG, the “PBM E-score” value is -0.223.

Take ATCGTTCC: the “PBM E-score” value was -0.0493.

For the sequence TATTCAGA, the “PBM E-score” value came out at 0.0372.

For the sequence AGCGTCTG, the “PBM E-score” value was -0.168.

Regarding AGATGGTA, the “PBM E-score” value came to 0.0214.

Take CACGGGTA: the “PBM E-score” value was determined as 0.178.

Turning to CAAGGGAC, the “PBM E-score” value is -0.176.

Regarding AAACGTAA, the “PBM E-score” value amounted to 0.052.

For ATATCACA, the “PBM E-score” value was determined as 0.0419.

In the case of TCGGATCA, the “PBM E-score” value is 0.0679.

Take CTCCTGAC: the “PBM E-score” value is -0.134.

Regarding CGCTCGAC, the “PBM E-score” value was -0.0914.

Take CAGGTATG: the “PBM E-score” value is -0.0429.

Regarding AGTATTGG, the “PBM E-score” value is -0.16.

Regarding ACCGTGCT, the “PBM E-score” value is -0.133.

On to GGACCGCC, for which the “PBM E-score” value is -0.0374.

As for AAACGAAT, the “PBM E-score” value is 0.0449.

For the sequence AGAACGAC, the “PBM E-score” value is -0.145.

As to CTTAGCGC, the “PBM E-score” value was 0.258.

Turning to CAGTAAGG, the “PBM E-score” value was -0.112.

Regarding TCACTACA, the “PBM E-score” value worked out at 0.094.

With CCCCCTAA, the “PBM E-score” value is -0.343.

Take AAAGTCAC: the “PBM E-score” value was -0.0894.

With CCACATAG, the “PBM E-score” value was -0.0697.

With AAAGGATG, the “PBM E-score” value amounted to 0.0347.

As for AAAAAGCA, the “PBM E-score” value is -0.00964.

For the sequence GAGTTCAC, the “PBM E-score” value was -0.151.

Consider TACCAATA, for which the “PBM E-score” value is -0.0683.

With AAAGACAC, the “PBM E-score” value came out at 0.167.

Regarding ATACTACC, the “PBM E-score” value worked out at 0.0303.

With AACTGGGG, the “PBM E-score” value is -0.263.

CAGCCAAG: the “PBM E-score” value was -0.234.

Regarding ATGTAACG, the “PBM E-score” value was 0.0402.

Consider AGGCTAGC, for which the “PBM E-score” value is -0.0958.

With AGTTCTAG, the “PBM E-score” value was -0.112.

As to CCCTTTCG, the “PBM E-score” value was -0.0373.

For AACTTCAC, the “PBM E-score” value came out at 0.192.

As for AGTCATAG, the “PBM E-score” value was -0.198.

For the sequence TGAACACA, the “PBM E-score” value was determined as 0.0238.

For the sequence GATGGCTA, the “PBM E-score” value is 0.038.

As for TAAGAGAA, the “PBM E-score” value came to 0.121.

In the case of GATGAACC, the “PBM E-score” value was -0.129.

Take ATAGTCCG: the “PBM E-score” value is -0.0422.

GATGGGCC: the “PBM E-score” value was -0.145.

As for CGAACAAC, the “PBM E-score” value was 0.161.

Consider ATAATACA, for which the “PBM E-score” value is 0.28.

In the case of CGTCAGCC, the “PBM E-score” value was -0.00525.

Take ACCTAGGG: the “PBM E-score” value was -0.184.

With AGACCATG, the “PBM E-score” value is -0.281.

For the sequence CTTTCGAA, the “PBM E-score” value stood at 0.0094.

For the sequence ATAGGTAC, the “PBM E-score” value was -0.109.

Take AGAACTTA: the “PBM E-score” value is 0.145.

AATTCCCA: the “PBM E-score” value is -0.18.

With GTTAGAGA, the “PBM E-score” value was -0.193.

As to CTCTACTC, the “PBM E-score” value was -0.144.

Take AAACTAGA: the “PBM E-score” value was -0.104.

Turning to AAGAGTCG, the “PBM E-score” value is -0.166.

As for AGGTGACG, the “PBM E-score” value is -0.182.

As for CCCGAGAA, the “PBM E-score” value was -0.0165.

As for ATACCCAG, the “PBM E-score” value is -0.207.

In the case of ATTGAACA, the “PBM E-score” value is -0.041.

For TGCGAGCA, the “PBM E-score” value amounted to 0.0256.

Regarding CAATATAA, the “PBM E-score” value was 0.209.

In the case of CGTACGGC, the “PBM E-score” value was found to be 0.482.

For ATATAACG, the “PBM E-score” value turned out to be 0.118.

As to GGGATCCA, the “PBM E-score” value is -0.0993.

For CACGTCAC, the “PBM E-score” value was -0.0268.

Consider CGTGTAGA, for which the “PBM E-score” value came out at 0.15.

For CGGCCAGA, the “PBM E-score” value was -0.0091.

Turning to ACTGTATG, the “PBM E-score” value was -0.085.

With CCTGATGC, the “PBM E-score” value worked out at 0.176.
